# Measurements from ChEMBL document CHEMBL5308541, “MAIP: An Open-Source Tool to Enrich High-Throughput Screening Output and Identify Novel, Druglike Molecules with Antimalarial Activity” (ACS Med Chem Lett, 2023).
# The whole screen tested about 150,000 compounds, of which about 540 (0.36%) showed an effect of 50% or more. Some of the results follow.
# Test system: Plasmodium falciparum
# Test: Primary screen in NF54 nanoGlo assay, in single point, at 2uM, 72h; a lower Z score goes with more inhibition
# Format: functional, Erythrocyte
# Settings: timepoint 72 hour
SMILES,% Inhibition [%],Z score
O=C(NC1CCN(Cc2cccs2)CC1)c1cccc(-c2cncnc2)c1,-2,0.35
COc1ccccc1-c1ccc(N(C)CCCn2nc(C)cc2C)nn1,-14,3.1
Cc1nn(C)c(C)c1CC(=O)NS(=O)(=O)c1ccc2[nH]ccc2c1,12,-2.58
CN(C)CC1CCN(C(=O)c2cccc(-c3cncc4ccccc34)c2)CC1O (stereo unspecified),-8,1.66
Cc1nc2[nH]c(=O)c(Br)cc2c(C)c1C,-7,1.14
CCN1CCC(NC(=O)CN2CCC(Oc3ccccn3)CC2)CC1,9,-2.04
c1ccc(Nc2nc(-c3ccnc4ccnn34)no2)cc1,-9,1.34
Cn1nnc2ccc(-c3ccc(N[C@H]4CCCC[C@@H]4O)nc3)cc21,-2,0.33
Cc1ccc(-c2cc(C(=O)N[C@H]3CCCN(C4CCN(C)CC4)C3)n[nH]2)s1,5,-0.79
Cc1noc(-c2ccnc(NC[C@@H](c3ccccn3)N3CCOCC3)c2)n1,95,-18.79
Cc1cc(N2CCC[C@H](N3CCN(c4ccccc4C)CC3)C2)nc(C(C)C)n1,-7,1.48
COc1ccc(CN(C)C(=O)[C@@H]2CC3(CCNCC3)CN2C)c2cccnc12,-4,0.62
CNc1nc(NC(C)(C)CN2CCCCCC2)ncc1F,-9,1.33
COCCCn1ccc(N[C@@H](C)c2cc(C(F)(F)F)cc(C(F)(F)F)c2)n1,-10,2.14
COc1ccc2nc(C)nc(NCc3ccc(C(=O)N4CC(C)OC(C)C4)cc3)c2c1 (stereo unspecified),-2,0.44
CCCc1nc(NCCC(=O)N2CCN(C(C)C)CC2)c2cnn(C)c2n1,10,-2.24
O=C(c1cccc(-c2ccc3nc[nH]c(=O)c3c2)c1)N1CCOC[C@@H]1CO,-10,1.8
CN(CCC#N)C[C@H](O)CN1CCc2[nH]c3ccc(F)cc3c2C1,-1,0.27
C1CC2(CCN1)CCC(N1C3CCNCC1CC3)CC2 (stereo unspecified),-7,1.39
Cc1nccc(C2CCN(CCN3CCN(c4ccccc4)CC3)CC2)n1,1,-0.11
CCOc1ccc2nc(-c3ncc[nH]3)ccc2c1,-3,0.47
Cn1cnnc1-c1cccc(NCc2cccc(-c3ccncc3)c2)c1,-7,1.52
Cc1cc(-c2nc3ccccc3[nH]2)nc2ccccc12,-10,1.78
CN(c1cc(C#N)ccn1)S(=O)(=O)c1ccccc1S(C)(=O)=O,-7,1.27
CCN1CCC(N2CCC(C(=O)NCCc3ccc(OC(F)(F)F)cc3)CC2)CC1,43,-7.72
CC(C)(CC(=O)O)NS(=O)(=O)c1ccc2c(c1)OC(F)(F)O2,-11,2.2
NS(=O)(=O)Cc1cccc(NC(=O)c2cc(F)cc3c(=O)c4cccc(F)c4[nH]c23)c1,-8,1.68

SMILES,% Inhibition [%],Z score
O=C(NCCn1ncc2ccccc2c1=O)N1CCC[C@H](c2ccncn2)C1,-12,2.55
COc1cc(C(C)NCc2ccncc2O[C@H]2CCNC2)c(F)cn1 (stereo partly specified),-8,1.28
c1cc(N2CCN(CC3CCNCC3)CC2)ccn1,-2,0.37
CCNC(=O)N1CCC(NCCc2c[nH]c3cc(Cl)ccc23)CC1,0,0.09
FC(F)Oc1cc(CNc2ncnc3[nH]ncc23)ccn1,15,-2.63
c1ccc(-c2cc(-c3c(-c4ccccc4)cn4c3sc3ccccc34)c(-c3ccccc3)nn2)cc1,-7,1.1
Nc1cc(N2CCN(CCOc3ccccc3)CC2)nc(N2CCOCC2)n1,3,-0.56
CC1(C)CC(NC[C@H](O)COc2cc(C(C)(C)C)c(O)c(C(C)(C)C)c2)CC(C)(C)N1,8,-1.38
CN1CCN(CCNCc2sc3ccccc3c2Cl)CC1,1,-0.16
Cc1ccc2nc(Nc3cccc(F)c3)c(-c3noc(C(C)C)n3)cc2c1,-14,2.37
COc1ccc2c(C)cc(NCCCN3CCC[C@H](C(N)=O)C3)nc2c1,57,-8.7
CC1(C)CC(Nc2nccc(-c3cnn(-c4ccccc4)c3)n2)CC(C)(C)N1,13,-2.6
C[C@H](NCc1cc(-c2ccccc2)on1)c1cc(F)ccc1N1CCC(O)CC1,-4,0.9
COCCn1nc(C)c(CNc2cc(C#N)nc3ccccc23)c1C,-4,0.8
CC(C)C[C@@H](CNc1cc(-n2ccnc2)ncn1)N1CCOCC1,-1,0.22
CCOC(=O)COc1ccc([C@H](C)NS(=O)(=O)N2CCC(C)CC2)cc1OC,2,-0.33
CC[C@H]1CCCCN1CCCNC(=O)CC1CCN(C(=O)c2cc3cc(Cl)ccc3[nH]2)CC1,1,-0.12
OC1CCN(c2cccc(Nc3nccc(C(F)(F)F)n3)c2)CC1,-3,0.57
N#Cc1cccc(Cl)c1N1CCCN(C2CCOCC2)CC1,-7,1.19
CC(C)CN1CCC(CNCc2ccc(C#CC(C)(C)O)s2)CC1,0,0.04
Cc1cc(C)c(CN2CCN(C)CC2)cc1CNCCCn1ccnc1C,42,-6.34
Cc1nc([C@H](C)NC(=O)Nc2ccccc2OC(F)(F)F)n[nH]1,-1,0.19
COCCOC1CCN(Cc2cccc(OC[C@@H](O)CN(C)C3CCCCC3)c2)CC1,-5,0.85
COCCN(C)c1ccc(CN[C@@H](C)CN2CCN(C)CC2)cn1,-4,0.64
CCn1nc(C(C)C)cc1C(=O)Nc1ccc(CC(=O)NC2CC2)cc1,3,-0.75
c1cc2c(cc1-c1cnc3c(c1)OCCO3)CCN2,-5,1.01
